Measurements taken from the supplement of paper PMC4967469.
By IC50 is meant the dose at which the fit gives 50% viability; fits outside the tested doses are given as limits. AUC is the area under the same curve over the 256-fold range up to the top dose, as a fraction; the more sensitive the line, the further below 1. For some assays here: An inferred top dose is not printed in the source and was worked back from the curve model.

Experiments:
Assay in all cases: Viability of human cancer cell lines after 72 h of drug (GDSC screen)
PD-173074 = compound: CCN(CC)CCCCNc1ncc2cc(-c3cc(OC)cc(OC)c3)c(NC(=O)NC(C)(C)C)nc2n1 [PD-173074]; details: top dose 2 µM; top dose inferred
Experimental: (§1)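 Human cancer cell lines in 384-well plates, medium with 10% serum, drug for 72 h over a 256-fold dose range (nine 2-fold or five 4-fold steps up to the top dose). Adherent lines were fixed and stained with the nucleic acid dye Syto60, suspension lines read with resazurin; signal relative to control wells, capped at 0 and 100%. One two-parameter sigmoid per drug and line, fitted in a mixed model over all curves with the slope shared within a line.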

SB590885 = compound: CN(C)CCOc1ccc(-c2nc(-c3ccncc3)c(-c3ccc4c(c3)CC/C4=N\O)[nH]2)cc1 [SB590885]; details: top dose 5 µM; top dose inferred
Experimental: as §1

Lapatinib = compound: CS(=O)(=O)CCNCc1ccc(-c2ccc3ncnc(Nc4ccc(OCc5cccc(F)c5)c(Cl)c4)c3c2)o1 [Lapatinib]; details: top dose 2 µM
Experimental: as §1

TGX221 = compound: Cc1cc(C(C)Nc2ccccc2)c2nc(N3CCOCC3)cc(=O)n2c1 [TGX221]; details: top dose 10 µM
Experimental: as §1

Row | Cell Line | AUC (PD-173074) | IC50 (PD-173074) | AUC (SB590885) | IC50 (SB590885) | AUC (Lapatinib) | IC50 (Lapatinib) | AUC (TGX221) | IC50 (TGX221)
1 | OVCAR-4 (ovary, adherent) | 0.966 | > 2 µM | 0.973 | > 5 µM | 0.911 | > 2 µM | 0.95 | > 10 µM
2 | NOMO-1 (acute myeloid leukaemia, suspension) | 0.891 | > 2 µM | 0.973 | > 5 µM | 0.982 | > 2 µM | 0.96 | > 10 µM
3 | NCI-H747 (large intestine, adherent) | 0.982 | > 2 µM | 0.968 | > 5 µM | 0.906 | > 2 µM | 0.959 | > 10 µM
4 | L-1236 (Hodgkin lymphoma, suspension) | 0.992 | > 2 µM | 0.992 | > 5 µM | 0.985 | > 2 µM | 0.967 | > 10 µM
5 | DG-75 (Burkitt lymphoma, suspension) | 0.895 | > 2 µM | 0.979 | > 5 µM | 0.987 | > 2 µM | 0.986 | > 10 µM
6 | DOHH-2 (B-cell lymphoma, suspension) | 0.959 | > 2 µM | 0.959 | > 5 µM | 0.95 | > 2 µM | 0.966 | > 10 µM
7 | C2BBe1 (large intestine, adherent) | 0.96 | > 2 µM | 0.812 | 3.13 µM | 0.97 | > 2 µM | 0.641 | 1.62 µM
8 | MSTO-211H (mesothelioma, adherent) | 0.825 | 1.05 µM | 0.99 | > 5 µM | 0.984 | > 2 µM | 0.97 | > 10 µM
9 | RPMI-8226 (myeloma, suspension) | 0.912 | > 2 µM | 0.973 | > 5 µM | 0.99 | > 2 µM | 0.984 | > 10 µM
10 | NCI-SNU-5 (stomach, suspension) | 0.984 | > 2 µM | 0.985 | > 5 µM | 0.983 | > 2 µM | 0.989 | > 10 µM
11 | SUP-T1 (T-cell lymphoblastic leukaemia, suspension) | 0.975 | > 2 µM | 0.985 | > 5 µM | 0.99 | > 2 µM | 0.988 | > 10 µM
12 | MC-CAR (haematopoietic neoplasm, suspension) | 0.93 | > 2 µM | 0.928 | > 5 µM | 0.987 | > 2 µM | 0.989 | > 10 µM
13 | EB-3 (Burkitt lymphoma, suspension) | 0.984 | > 2 µM | 0.984 | > 5 µM | 0.976 | > 2 µM | 0.942 | > 10 µM
14 | KINGS-1 (glioma, adherent) | 0.975 | > 2 µM | 0.979 | > 5 µM | 0.973 | > 2 µM | 0.858 | > 10 µM
15 | JURL-MK1 (chronic myeloid leukaemia, suspension) | 0.89 | > 2 µM | 0.987 | > 5 µM | 0.979 | > 2 µM | 0.986 | > 10 µM
16 | NCI-H322M (lung adenocarcinoma, suspension) | 0.938 | > 2 µM | 0.96 | > 5 µM | 0.921 | > 2 µM | 0.98 | > 10 µM
17 | EW-1 (Ewing sarcoma, semi-adherent) | 0.978 | > 2 µM | 0.989 | > 5 µM | 0.975 | > 2 µM | 0.91 | > 10 µM
18 | UACC-257 (melanoma, adherent) | 0.982 | > 2 µM | 0.677 | 1.1 µM | 0.981 | > 2 µM | 0.854 | > 10 µM
19 | HH (T-cell leukaemia, suspension) | 0.944 | > 2 µM | 0.969 | > 5 µM | 0.973 | > 2 µM | 0.861 | > 10 µM
20 | SR (lymphoid neoplasm, suspension) | 0.889 | 1.88 µM | 0.92 | > 5 µM | 0.97 | > 2 µM | 0.98 | > 10 µM

Row | Cell Line | AUC (PD-173074) | IC50 (PD-173074) | AUC (SB590885) | IC50 (SB590885) | AUC (Lapatinib) | IC50 (Lapatinib) | AUC (TGX221) | IC50 (TGX221)
21 | LC4-1 (lymphoblastic leukaemia, suspension) | 0.979 | > 2 µM | 0.985 | > 5 µM | 0.983 | > 2 µM | 0.88 | > 10 µM
22 | GDM-1 (acute myeloid leukaemia, suspension) | 0.987 | > 2 µM | 0.987 | > 5 µM | 0.984 | > 2 µM | 0.894 | > 10 µM
23 | A101D (melanoma, adherent) | 0.892 | > 2 µM | 0.683 | 1.15 µM | 0.942 | > 2 µM | 0.806 | 6.54 µM
24 | HUTU-80 (digestive system, adherent) | 0.944 | > 2 µM | 0.991 | > 5 µM | 0.975 | > 2 µM | 0.961 | > 10 µM
25 | SF539 (glioma, adherent) | 0.985 | > 2 µM | 0.99 | > 5 µM | 0.966 | > 2 µM | 0.979 | > 10 µM
26 | COR-L95 (small cell lung carcinoma, adherent) | 0.987 | > 2 µM | 0.987 | > 5 µM | 0.978 | > 2 µM | 0.979 | > 10 µM
27 | MS-1 (small cell lung carcinoma, suspension) | 0.989 | > 2 µM | 0.991 | > 5 µM | 0.981 | > 2 µM | 0.99 | > 10 µM
28 | MC116 (B-cell lymphoma, suspension) | 0.999 | > 2 µM | 0.999 | > 5 µM | 0.999 | > 2 µM | 0.991 | > 10 µM
29 | OCI-LY-19 (B-cell lymphoma, suspension) | 0.963 | > 2 µM | 0.981 | > 5 µM | 0.988 | > 2 µM | 0.983 | > 10 µM
30 | SHP-77 (small cell lung carcinoma, semi-adherent) | 0.991 | > 2 µM | 0.99 | > 5 µM | 0.979 | > 2 µM | 0.983 | > 10 µM
31 | SF268 (glioma, adherent) | 0.985 | > 2 µM | 0.985 | > 5 µM | 0.934 | > 2 µM | 0.943 | > 10 µM
32 | CMK (acute myeloid leukaemia, suspension) | 0.97 | > 2 µM | 0.981 | > 5 µM | 0.991 | > 2 µM | 0.943 | > 10 µM
33 | NB5 (neuroblastoma, adherent) | 0.986 | > 2 µM | 0.972 | > 5 µM | 0.92 | > 2 µM | 0.987 | > 10 µM
34 | NCI-H82 (small cell lung carcinoma, suspension) | 0.982 | > 2 µM | 0.979 | > 5 µM | 0.968 | > 2 µM | 0.985 | > 10 µM
35 | 8-MG-BA (glioma, adherent) | 0.983 | > 2 µM | 0.979 | > 5 µM | 0.982 | > 2 µM | 0.983 | > 10 µM
36 | LU-65 (large cell lung carcinoma, suspension) | 0.987 | > 2 µM | 0.987 | > 5 µM | 0.962 | > 2 µM | 0.978 | > 10 µM
37 | Becker (glioma, adherent) | 0.979 | > 2 µM | 0.973 | > 5 µM | 0.948 | > 2 µM | 0.449 | 0.447 µM
38 | NCI-H345 (small cell lung carcinoma, suspension) | 0.99 | > 2 µM | 0.99 | > 5 µM | 0.99 | > 2 µM | 0.99 | > 10 µM
39 | NB10 (neuroblastoma, adherent) | 0.968 | > 2 µM | 0.988 | > 5 µM | 0.986 | > 2 µM | 0.987 | > 10 µM
40 | KMOE-2 (acute myeloid leukaemia, suspension) | 0.966 | > 2 µM | 0.952 | > 5 µM | 0.983 | > 2 µM | 0.99 | > 10 µM

Row | Cell Line | AUC (PD-173074) | IC50 (PD-173074) | AUC (SB590885) | IC50 (SB590885) | AUC (Lapatinib) | IC50 (Lapatinib) | AUC (TGX221) | IC50 (TGX221)
41 | no-11 (glioma, adherent) | 0.967 | > 2 µM | 0.945 | > 5 µM | 0.983 | > 2 µM | 0.89 | > 10 µM
42 | TE-8 (oesophagus, adherent) | 0.968 | > 2 µM | 0.985 | > 5 µM | 0.906 | > 2 µM | 0.968 | > 10 µM
43 | COLO-668 (small cell lung carcinoma, adherent) | 0.984 | > 2 µM | 0.988 | > 5 µM | 0.901 | > 2 µM | 0.982 | > 10 µM
44 | SIMA (neuroblastoma, adherent) | 0.976 | > 2 µM | 0.985 | > 5 µM | 0.981 | > 2 µM | 0.976 | > 10 µM
45 | TE-6 (oesophagus, adherent) | 0.884 | > 2 µM | 0.971 | > 5 µM | 0.826 | 1.5 µM | 0.969 | > 10 µM
46 | IM-9 (myeloma, suspension) | 0.985 | > 2 µM | 0.98 | > 5 µM | 0.992 | > 2 µM | 0.991 | > 10 µM
47 | NCI-H209 (small cell lung carcinoma, suspension) | 0.879 | > 2 µM | 0.981 | > 5 µM | 0.986 | > 2 µM | 0.976 | > 10 µM
48 | LB771-HNC (head and neck, adherent) | 0.982 | > 2 µM | 0.91 | > 5 µM | 0.894 | > 2 µM | 0.973 | > 10 µM
49 | QIMR-WIL (acute myeloid leukaemia, suspension) | 0.987 | > 2 µM | 0.987 | > 5 µM | 0.987 | > 2 µM | 0.889 | > 10 µM
50 | IST-MEL1 (melanoma, adherent) | 0.979 | > 2 µM | 0.894 | > 5 µM | 0.902 | > 2 µM | 0.71 | 2.77 µM
51 | NCI-H1838 (lung adenocarcinoma, adherent) | 0.982 | > 2 µM | 0.977 | > 5 µM | 0.976 | > 2 µM | 0.984 | > 10 µM
52 | BE-13 (lymphoblastic leukaemia, suspension) | 0.885 | 1.94 µM | 0.94 | > 5 µM | 0.971 | > 2 µM | 0.987 | > 10 µM
53 | NH-12 (neuroblastoma, adherent) | 0.98 | > 2 µM | 0.981 | > 5 µM | 0.984 | > 2 µM | 0.978 | > 10 µM
54 | LB647-SCLC (small cell lung carcinoma, semi-adherent) | 0.897 | > 2 µM | 0.95 | > 5 µM | 0.938 | > 2 µM | 0.98 | > 10 µM
55 | NCI-H1395 (lung adenocarcinoma, adherent) | 0.977 | > 2 µM | 0.982 | > 5 µM | 0.974 | > 2 µM | 0.952 | > 10 µM
56 | MFH-ino (soft tissue, adherent) | 0.983 | > 2 µM | 0.978 | > 5 µM | 0.948 | > 2 µM | 0.89 | > 10 µM
57 | L-540 (Hodgkin lymphoma, suspension) | 0.99 | > 2 µM | 0.99 | > 5 µM | 0.978 | > 2 µM | 0.99 | > 10 µM
58 | LB2518-MEL (melanoma, adherent) | 0.984 | > 2 µM | 0.987 | > 5 µM | 0.987 | > 2 µM | 0.955 | > 10 µM
